Measurements published in a compilation of properties of binary mixtures (doi:10.1021/acs.jced.0c00728).
The densities may have been worked out from excess volumes.

Test: xn = mol fraction of the nth substance listed
Details: 100 kPa

CCC(=O)O + CC[n+]1ccn(C)c1.F[B-](F)(F)F
mass density [kg/m3]
Details	293.15 K	303.15 K	313.15 K	323.15 K	333.15 K
x2 = 0	998	988	–	966	955
x2 = 0.0497	1001	991	982	973	965
x2 = 0.0888	1013	1006	1001	992	983
x2 = 0.1876	–	1075	1073	1071	1065
x2 = 0.2982	1148	1146	–	1131	1123
x2 = 0.3836	1176	–	1170	–	1158
x2 = 0.4908	–	1198	–	1188	–
x2 = 0.5907	–	1217	1208	–	1198
x2 = 0.6891	–	1231	1225	1217	1210
x2 = 0.78	1252	1247	1239	1232	1225
x2 = 0.8899	1268	1261	1254	–	1239
x2 = 0.9453	1275	1269	1262	–	–

CC[n+]1ccn(C)c1.F[B-](F)(F)F + CCC(=O)O
x1 = 1
Details	mass density [kg/m3]
303.15 K	1275
313.15 K	1267
333.15 K	1253
